Measurements published in article PMC9911399, “Two distinct binding modes provide the RNA-binding protein RbFox with extraordinary sequence specificity”.
Residue numbers refer to the chain shown, from its start. The list shows a part of the results.

T1: RBFOX1 RRM (Homo sapiens, UniProt Q9NWB1 109-208)
T1 sequence: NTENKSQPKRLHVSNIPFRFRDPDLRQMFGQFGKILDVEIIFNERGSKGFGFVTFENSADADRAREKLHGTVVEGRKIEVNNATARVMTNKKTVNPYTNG

B1: CGUUCGG (DNA:RNA)
RNA: GGGAGACCGGAAUUCAGAUUGUCCCGUUCGGUUAAAUCCCGUCGUAGCCACCA
DNA 1: CAATCTGAATTCCGGTCTCCC
DNA 2: TGGTGGCTACGACGGGATT
B2: GUAUUUU (DNA:RNA)
RNA: B1 RNA with C25G, G26U, U27A, C29U, G30U, G31U
DNA 1: CAATCTGAATTCCGGTCTCCC
DNA 2: TGGTGGCTACGACGGGATT
B3: UUAUACA (DNA:RNA)
RNA: B1 RNA with C25U, G26U, U27A, C29A, G30C, G31A
DNA 1: CAATCTGAATTCCGGTCTCCC
DNA 2: TGGTGGCTACGACGGGATT
B4: CCAGUUU (DNA:RNA)
RNA: B1 RNA with G26C, U27A, U28G, C29U, G30U, G31U
DNA 1: CAATCTGAATTCCGGTCTCCC
DNA 2: TGGTGGCTACGACGGGATT
B5: AAAGCAA (DNA:RNA)
RNA: B1 RNA with C25A, G26A, U27A, U28G, G30A, G31A
DNA 1: CAATCTGAATTCCGGTCTCCC
DNA 2: TGGTGGCTACGACGGGATT
B6: UAAAGAG (DNA:RNA)
RNA: B1 RNA with C25U, G26A, U27A, U28A, C29G, G30A
DNA 1: CAATCTGAATTCCGGTCTCCC
DNA 2: TGGTGGCTACGACGGGATT
B7: GUGGGAU (DNA:RNA)
RNA: GGGAGACCGGAAUUCAGAUUGUCCGUGGGAUUUAAAUCCCGUCGUAGCCACCA
DNA 1: CAATCTGAATTCCGGTCTCCC
DNA 2: TGGTGGCTACGACGGGATT
B8: UCUUUUC (DNA:RNA)
RNA: B1 RNA with C25U, G26C, C29U, G30U, G31C
DNA 1: CAATCTGAATTCCGGTCTCCC
DNA 2: TGGTGGCTACGACGGGATT
B9: UACUUGC (DNA:RNA)
RNA: B1 RNA with C25U, G26A, U27C, C29U, G31C
DNA 1: CAATCTGAATTCCGGTCTCCC
DNA 2: TGGTGGCTACGACGGGATT
B10: GUGGGGC (DNA:RNA)
RNA: B7 RNA with A30G, U31C
DNA 1: CAATCTGAATTCCGGTCTCCC
DNA 2: TGGTGGCTACGACGGGATT
B11: CUGUCCA (DNA:RNA)
RNA: B1 RNA with G26U, U27G, G30C, G31A
DNA 1: CAATCTGAATTCCGGTCTCCC
DNA 2: TGGTGGCTACGACGGGATT
B12: UGCAGUA (DNA:RNA)
RNA: B1 RNA with C25U, U27C, U28A, C29G, G30U, G31A
DNA 1: CAATCTGAATTCCGGTCTCCC
DNA 2: TGGTGGCTACGACGGGATT
B13: CAUUUGC (DNA:RNA)
RNA: B1 RNA with G26A, C29U, G31C
DNA 1: CAATCTGAATTCCGGTCTCCC
DNA 2: TGGTGGCTACGACGGGATT
B14: CGAAGCC (DNA:RNA)
RNA: B1 RNA with U27A, U28A, C29G, G30C, G31C
DNA 1: CAATCTGAATTCCGGTCTCCC
DNA 2: TGGTGGCTACGACGGGATT
B15: UAUCCUC (DNA:RNA)
RNA: B1 RNA with C25U, G26A, U28C, G30U, G31C
DNA 1: CAATCTGAATTCCGGTCTCCC
DNA 2: TGGTGGCTACGACGGGATT
B16: CCUUCGG (DNA:RNA)
RNA: B1 RNA with G26C
DNA 1: CAATCTGAATTCCGGTCTCCC
DNA 2: TGGTGGCTACGACGGGATT
B17: CCAUGUC (DNA:RNA)
RNA: B1 RNA with G26C, U27A, C29G, G30U, G31C
DNA 1: CAATCTGAATTCCGGTCTCCC
DNA 2: TGGTGGCTACGACGGGATT
B18: GUGGGAA (DNA:RNA)
RNA: B7 RNA with U31A
DNA 1: CAATCTGAATTCCGGTCTCCC
DNA 2: TGGTGGCTACGACGGGATT
B19: GGACCCU (DNA:RNA)
RNA: B1 RNA with C25G, U27A, U28C, G30C, G31U
DNA 1: CAATCTGAATTCCGGTCTCCC
DNA 2: TGGTGGCTACGACGGGATT
B20: UUACGGG (DNA:RNA)
RNA: B1 RNA with C25U, G26U, U27A, U28C, C29G
DNA 1: CAATCTGAATTCCGGTCTCCC
DNA 2: TGGTGGCTACGACGGGATT
B21: AUGCAUU (DNA:RNA)
RNA: B7 RNA with G25A, G28C, G29A, A30U
DNA 1: CAATCTGAATTCCGGTCTCCC
DNA 2: TGGTGGCTACGACGGGATT
B22: AUCAAGU (DNA:RNA)
RNA: B7 RNA with G25A, G27C, G28A, G29A, A30G
DNA 1: CAATCTGAATTCCGGTCTCCC
DNA 2: TGGTGGCTACGACGGGATT
B23: GUUGCAG (DNA:RNA)
RNA: B7 RNA with G27U, G29C, U31G
DNA 1: CAATCTGAATTCCGGTCTCCC
DNA 2: TGGTGGCTACGACGGGATT
B24: ACAUAAU (DNA:RNA)
RNA: B7 RNA with G25A, U26C, G27A, G28U, G29A
DNA 1: CAATCTGAATTCCGGTCTCCC
DNA 2: TGGTGGCTACGACGGGATT
B25: CCUAUAC (DNA:RNA)
RNA: B1 RNA with G26C, U28A, C29U, G30A, G31C
DNA 1: CAATCTGAATTCCGGTCTCCC
DNA 2: TGGTGGCTACGACGGGATT
B26: GAAUUGU (DNA:RNA)
RNA: B1 RNA with C25G, G26A, U27A, C29U, G31U
DNA 1: CAATCTGAATTCCGGTCTCCC
DNA 2: TGGTGGCTACGACGGGATT
B27: AGCUACA (DNA:RNA)
RNA: B1 RNA with C25A, U27C, C29A, G30C, G31A
DNA 1: CAATCTGAATTCCGGTCTCCC
DNA 2: TGGTGGCTACGACGGGATT
B28: AGUUAGA (DNA:RNA)
RNA: B1 RNA with C25A, C29A, G31A
DNA 1: CAATCTGAATTCCGGTCTCCC
DNA 2: TGGTGGCTACGACGGGATT
B29: UUAAAUC (DNA:RNA)
RNA: B7 RNA with G25U, G27A, G28A, G29A, A30U, U31C
DNA 1: CAATCTGAATTCCGGTCTCCC
DNA 2: TGGTGGCTACGACGGGATT
B30: CUUCCUU (DNA:RNA)
RNA: B1 RNA with G26U, U28C, G30U, G31U
DNA 1: CAATCTGAATTCCGGTCTCCC
DNA 2: TGGTGGCTACGACGGGATT
B31: AUACUCG (DNA:RNA)
RNA: B1 RNA with C25A, G26U, U27A, U28C, C29U, G30C
DNA 1: CAATCTGAATTCCGGTCTCCC
DNA 2: TGGTGGCTACGACGGGATT

Molecular target: T1, RBFOX1 RRM
Experiment: EMSA; HiTS-Eq, 1 nM pool, 10 min; buffer printed only for the single-RNA assays: 10 mM Tris pH 7.5, 150 mM NaCl, 3.4 mM EDTA, 0.001% NP-40, 30 C
Conditions: tags: His6 N-terminal (pET28a); label: 5' 32P
In short: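 Purified wild-type or mutant RbFox RRM at increasing concentrations was equilibrated with 1 nM of 5′-radiolabelled RNA carrying 7 randomized nucleotides for 10 min in 50 µL. Unbound RNA was separated by 8% native PAGE and sequenced. Relative association constants came from read-count changes of each RNA species compared with the control reaction, normalised to the cognate motif.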

B1 was tested. Which binding signal did it give?
The binding signal was 0.0132 KA relative to UGCAUGU.

For B2, which binding signal is on record?
Its binding signal is 0.00924 KA relative to UGCAUGU.

B3 was tested. Which binding signal did it give?
Its binding signal is 0.00478 KA relative to UGCAUGU.

How did the binding signal turn out when B4 was run?
The binding signal was 0.0067 KA relative to UGCAUGU.

For B5, which binding signal is on record?
The binding signal was 0.000628 KA relative to UGCAUGU.

For B6, which binding signal is on record?
The binding signal was 0.00393 KA relative to UGCAUGU.

B7 was tested. Which binding signal did it give?
The binding signal was 0.0133 KA relative to UGCAUGU.

Which binding signal does the source give for B8 here?
Its binding signal is 0.0107 KA relative to UGCAUGU.

Which binding signal does the source give for B9 here?
The binding signal was 0.0149 KA relative to UGCAUGU.

How did the binding signal turn out when B10 was run?
The binding signal was 0.0153 KA relative to UGCAUGU.

Which binding signal does the source give for B11 here?
The binding signal was 0.0087 KA relative to UGCAUGU.

With B12 as the binder, how does the binding signal read?
Its binding signal is 0.0125 KA relative to UGCAUGU.

For B13, which binding signal is on record?
The binding signal was 0.00998 KA relative to UGCAUGU.

For B14, which binding signal is on record?
The binding signal was 0.006 KA relative to UGCAUGU.

How did the binding signal turn out when B15 was run?
Its binding signal is 0.00434 KA relative to UGCAUGU.

How did the binding signal turn out when B16 was run?
Its binding signal is 0.0125 KA relative to UGCAUGU.

For B17, which binding signal is on record?
The binding signal was 0.0027 KA relative to UGCAUGU.

For B18, which binding signal is on record?
The binding signal was 0.0137 KA relative to UGCAUGU.

How did the binding signal turn out when B19 was run?
The binding signal was 0.00658 KA relative to UGCAUGU.

With B20 as the binder, how does the binding signal read?
The binding signal was 0.00351 KA relative to UGCAUGU.

With B21 as the binder, how does the binding signal read?
The binding signal was 0.0122 KA relative to UGCAUGU.

How did the binding signal turn out when B22 was run?
The binding signal was 0.00367 KA relative to UGCAUGU.

B23 was tested. Which binding signal did it give?
The binding signal was 0.0214 KA relative to UGCAUGU.

B24 was tested. Which binding signal did it give?
The binding signal was 0.000268 KA relative to UGCAUGU.

With B25 as the binder, how does the binding signal read?
Its binding signal is 0.00132 KA relative to UGCAUGU.

With B26 as the binder, how does the binding signal read?
The binding signal was 0.015 KA relative to UGCAUGU.

Which binding signal does the source give for B27 here?
The binding signal was 0.0034 KA relative to UGCAUGU.

How did the binding signal turn out when B28 was run?
The binding signal was 0.00929 KA relative to UGCAUGU.

How did the binding signal turn out when B29 was run?
Its binding signal is 0.00565 KA relative to UGCAUGU.

With B30 as the binder, how does the binding signal read?
Its binding signal is 0.00719 KA relative to UGCAUGU.

B31 was tested. Which binding signal did it give?
The binding signal was 0.00652 KA relative to UGCAUGU.
